The values that follow come from the RNAGym collection of RNA variant scans (doi:10.7554/elife.90254).

Read counts are not given, so values of variants with three or more changes are uncertain.

B1: LINE1-mini (parent)
chain: GGCAGAGCUCAACACAGCGUGGCAAAGUGGCUGUGGCUAGACUGCC

Variants of B1 are the subject of this data set. Kind of data set: self-cleavage, relative activity (ratio to wild type); higher = more cleavage; in vitro, sequencing; the parent is a self-cleaving ribozyme.
With A12C C18U G21C C23U, the self-cleavage came to 0.04. On to A12C G21U C45U, for which the self-cleavage stood at 0.08.

On to A12C A39U C45U, for which the self-cleavage was determined as 0.03.

On to A12C G22U C37A, for which the self-cleavage was determined as 0.01. A12C G17A G21A G36A C42A: the self-cleavage worked out at 0.01. In the case of A11U G22C G30A, the self-cleavage worked out at 0.28. Take A11U C23A A24U A39G: the self-cleavage came to 0.02. The same measure for A12C C18A A26G: 0.01; for A12C G21U G27A G44A: 0.01; for A11U C13U G22A: 0.13. To A12C A14C U28A C31G G36C belongs 0; to A12G A16U C23U A26C, 0; to A11U G21A C45G, 0.21. Consider A12C G22U G30U, for which the self-cleavage was determined as 0.02.

As for A12G A16U G22U A41U G44C C45A, the self-cleavage is 0.

As to A11U G35C U43A C45A, the self-cleavage came out at 0. A12C A25U U32C G36C C46A: the self-cleavage turned out to be 0.01.

In the case of A12C G19C A41G, the self-cleavage worked out at 0.02. The same measure for A12C G17U C42A C45U: 0.05; for A11U G21C U28C U34G C37A: 0.01; for A11U G35A G36A: 0.02.

With A12C G19C U32A C45U, the self-cleavage worked out at 0.02. To A11U G21A G35A G40U belongs 0; to A12C A26U U28G A39U C46G, 0; to A11U C13U G17U, 0.04. To A12C A14U A16C C45G belongs 0.04; to A12C G17A G19C G22A G44A C45A, 0.01; to A11U G22C C31A, 0.04.

Turning to A12C A16U C23U, the self-cleavage turned out to be 0.01. The same measure for A11U G17C C23A U38C: 0.02; for A11U C15A G44A: 0.03. The same measure for A12G A16C G17U C18U C45U: 0.01; for A11U U20A A24U G29U: 0.09; for A11U G17U G22A: 0.33. The same measure for A12C U28G C46A: 0.01. On to A11U C42G C45A, for which the self-cleavage was 0. Turning to A12C A14C G17C G27C, the self-cleavage was determined as 0.02.

For the variant A11U G29C U38C G40U C42U, the self-cleavage was 0. Regarding A12C A16G U32C C45A, the self-cleavage was 0.

Take A11U G17U G19C: the self-cleavage was determined as 0.11. Regarding A12C C13G C23G C31U U34G G44C, the self-cleavage amounted to 0.

In the case of A12C C13A G22C, the self-cleavage worked out at 0.15. To A12C A16U U28G G30A U32C C37G C45G belongs 0. To A12G A14C G22U G36U belongs 0.01. The same measure for A12C G35U U38A: 0.06. Regarding A12C C13U C23A G29A A41G, the self-cleavage was determined as 0.01. The same measure for A11U G17A G22C A25C G27A: 0.02; for A11U G21U G30C: 0.08; for A11U C31U U34C C42G: 0.01. To A12C C13U C23U belongs 0.02; to A11U G21U A26U G29U, 0.06. For A12C G33A U34A, the self-cleavage was found to be 0.03. To A11U C23A G35U U43C belongs 0.01. The same measure for A12C A16C A24G G44U: 0; for A12C C37A C46U: 0.01; for A12C C42U G44U: 0.01. The same measure for A12C C18U G27C U34G U43G: 0; for A12C U34A C42U: 0.01. Turning to A12C G30A C46U, the self-cleavage amounted to 0.01. To A11U G17U A25C A26U belongs 0.01; to A12G A16G G17A G33C, 0.03. To A12C G33A U43A G44A belongs 0.01; to A12C G29C A41C, 0.01; to A12C G40A U43C, 0.1. With A11U G22C G36A, the self-cleavage amounted to 0.06. To A12C C23U A26U C31A belongs 0.01. The same measure for A11U G17A C23A: 0.03; for A12C C13U U20G G22A A24U G29A C31U G33A: 0.05.

As for A12C G30C C37A, the self-cleavage was 0.02. On to A12C G29U C45U, for which the self-cleavage was 0.03. The same measure for A12C U32C C42U C46A: 0.01; for A12C C23U A26G G40U: 0.12. The same measure for A11U G30U G33C: 0.02; for A12C A25C C37G C42U G44C: 0; for A12C C31U G33A: 0.02. As for A12C C31U G33C, the self-cleavage is 0.01. The same measure for A11U C18G C45U: 0.03; for A12C G27U C37U: 0.03; for A12C C18A C37U C46U: 0. To A11U U32A U43A belongs 0.03; to A12C G30U G36C C37A, 0.01. The same measure for A12C U28G G40A C42A: 0; for A11U U28C C45U: 0.02. Turning to A12C U38C G44C C45G, the self-cleavage came to 0.04. Consider A12C U34G G40U, for which the self-cleavage worked out at 0. The same measure for A12C G27A A41U: 0.02; for A11U U28G G40A: 0; for A12C U28A G40U C42G: 0. The same measure for A12C C18A C46A: 0.04. Take A12G A25C G27A C37G: the self-cleavage worked out at 0.02.

Take A11U G22A G40C: the self-cleavage worked out at 0.02. The same measure for A12C C23A A41G: 0; for A12C G17C G30U G35A: 0.02. The same measure for A11U G19U A26G G27A G29U: 0.05; for A11U G21C C23U G29C G30C G40U: 0.

In the case of A12C C37U C42G C46U, the self-cleavage was found to be 0.01. To A11U G36U C37U belongs 0; to A12C C13G C15U G33C, 0.01; to A12C A24C C42A, 0.01. The same measure for A12C C31G A39C: 0.02. To A12C A25C C37U G40U belongs 0; to A12C C13A A14G G40U, 0; to A12C C18U G19A, 0.02. For A12C U38G G40U, the self-cleavage stood at 0.01. With A12G A16C U28G, the self-cleavage came to 0.01.

For A12C U34C U43G, the self-cleavage was 0.01. The same measure for A12C C18U G33U C46U: 0; for A11U G19C U38A C42G G44C: 0.01; for A12C C13U A24G: 0. In the case of A12C A16C C46A, the self-cleavage turned out to be 0.01. To A12C U20C G21C A26C G27U G30C G35U A39U belongs 0.02; to A11U C15A U34A C46G, 0.02. To A12C A14U G19C G22C G27A U34A C37G belongs 0; to A11U C31A G36A C37G, 0.02; to A12C C37U A39U, 0. As to A12C C31A U38A, the self-cleavage was 0.

In the case of A12C A16U G22A A26G A41C G44U C45A, the self-cleavage amounted to 0. To A12G A16C C18A G21A U34A G35C C42G belongs 0.01; to A12C A25U G35A C45A, 0.01; to A11U C13U G35U U38A A41U U43G C46U, 0.01.

Turning to A12C A25C G35U, the self-cleavage is 0.03. Turning to A12G A16U U28G, the self-cleavage is 0.05. To A12C A14G C18U G29C belongs 0.06; to A12C A24C G33U A41C, 0.

For the variant A12C C23U G29U A39U A41C, the self-cleavage stood at 0.01.

Regarding A12C A14C U20G G21U, the self-cleavage worked out at 0.01. For A12G A16G G17U C42A, the self-cleavage was determined as 0.36. To A11U G22A G29A belongs 0.03; to A12C G22U G35U C45U, 0.02. As to A11U C18U U20A C46U, the self-cleavage worked out at 0.26. Regarding A12C C15U C18A U28A G44U, the self-cleavage was found to be 0.01. Consider A12C U34C A39C C46U, for which the self-cleavage was found to be 0. To A12C A16C G27C C45U belongs 0.01.

Take A12C C13A A24C A39G: the self-cleavage came out at 0.05. The same measure for A11U G17A C46A: 0.

Consider A12C G27C C31U G35A C46A, for which the self-cleavage was determined as 0.02. In the case of A12G A24U U32G U38G, the self-cleavage stood at 0.02. To A12C G17C C23A A26C G40A belongs 0; to A11U C15A G19U, 0.07; to A12G A16C G35A, 0.04. The same measure for A11U U20G C37U: 0.02; for A12C A14U G22A: 0.03.

As for A11U C23G G29C U38C G44C, the self-cleavage turned out to be 0.01. The same measure for A12C A16G A26C: 0.01.

Take A12C C13G C31A: the self-cleavage came to 0.

For A12C A25U C46A, the self-cleavage was determined as 0.03. To A12C A25U C46G belongs 0; to A12C A24G U28G, 0.05; to A11U G19A C31A, 0.01. The same measure for A12C G19A G22U: 0.01; for A11U G22U A24U C37A A41U: 0.01; for A12C G33A C42U: 0.08. The same measure for A12C G33A A39C: 0.03.

As to A11U U28C G29C C46A, the self-cleavage amounted to 0.02. The same measure for A11U U32A G33C C37A C46U: 0; for A12C C13A C23U A26U: 0.01. The same measure for A12G A14U C23U G27A G30C C46U: 0.01; for A12C G21U G27A C37U: 0. To A12C G17C G19C belongs 0.01; to A12C U28G U32A, 0.02. Regarding A12C C13A C18G, the self-cleavage was found to be 0.02. The same measure for A11U G21A C23U C45G C46U: 0.01. The same measure for A11U G27U G40C A41U: 0; for A11U C18U G29U C31G: 0.03; for A11U C15U G19C C45A: 0.01. The same measure for A11U C31A U32G G33A A39C G40U C42U: 0; for A11U G29U U34G: 0.
